Measurements as given in PMC4336329 (PLoS ONE, 2015).
The campaign covered roughly 310,000 compounds. About 14,000 (4.5%) showed an effect of 50% or more. The effect is printed as a negative number. This is one part of the list.

Target: human ether-à-go-go-related gene (hERG) potassium channel (human, UniProt Q12809)
Test: primary screen, population patch clamp on CHO cells stably expressing hERG
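Also: peak tail current of the secondary pulse compared with the same well before compound.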

Chain of human ether-à-go-go-related gene (hERG) potassium channel (Q12809 whole entry, looked up): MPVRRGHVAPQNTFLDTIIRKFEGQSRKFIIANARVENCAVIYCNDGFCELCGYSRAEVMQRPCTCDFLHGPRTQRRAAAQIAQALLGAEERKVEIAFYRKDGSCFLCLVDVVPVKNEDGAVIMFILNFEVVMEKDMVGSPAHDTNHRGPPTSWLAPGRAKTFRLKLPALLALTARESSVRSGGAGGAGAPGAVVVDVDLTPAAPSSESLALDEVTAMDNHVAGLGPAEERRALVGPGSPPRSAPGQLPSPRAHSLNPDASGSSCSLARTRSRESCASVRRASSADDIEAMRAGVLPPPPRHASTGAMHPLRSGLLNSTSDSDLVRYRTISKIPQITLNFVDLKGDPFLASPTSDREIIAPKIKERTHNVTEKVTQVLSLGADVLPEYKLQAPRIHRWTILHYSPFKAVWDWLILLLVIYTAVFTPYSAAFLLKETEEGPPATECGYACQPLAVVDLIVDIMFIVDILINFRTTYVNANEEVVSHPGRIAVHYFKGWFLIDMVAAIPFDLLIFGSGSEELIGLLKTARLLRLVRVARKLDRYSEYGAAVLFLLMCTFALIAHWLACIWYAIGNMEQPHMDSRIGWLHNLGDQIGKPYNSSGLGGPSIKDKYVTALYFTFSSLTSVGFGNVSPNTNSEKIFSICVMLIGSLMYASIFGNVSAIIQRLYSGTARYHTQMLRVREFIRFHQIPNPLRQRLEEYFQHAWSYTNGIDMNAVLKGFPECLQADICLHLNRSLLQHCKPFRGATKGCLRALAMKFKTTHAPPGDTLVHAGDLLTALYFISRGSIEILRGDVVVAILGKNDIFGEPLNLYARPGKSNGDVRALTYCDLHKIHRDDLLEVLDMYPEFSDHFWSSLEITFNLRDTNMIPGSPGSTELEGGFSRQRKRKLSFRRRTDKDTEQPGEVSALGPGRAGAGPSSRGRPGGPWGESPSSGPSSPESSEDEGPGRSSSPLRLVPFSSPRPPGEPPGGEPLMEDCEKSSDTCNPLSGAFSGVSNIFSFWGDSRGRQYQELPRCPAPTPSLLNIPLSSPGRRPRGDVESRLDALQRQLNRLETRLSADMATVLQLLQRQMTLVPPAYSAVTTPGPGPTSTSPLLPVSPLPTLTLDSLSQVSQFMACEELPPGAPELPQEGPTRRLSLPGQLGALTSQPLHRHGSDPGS

SMILES	hERG current change (%, negative = inhibition) at 10uM [%]
O=C(CCC1CCCN(C(=O)CC2=CCCCC2)C1)N1CCN(c2ccccn2)CC1 (stereo not drawn)	5.98
COc1ccc(N2C(=O)C3CC(C)=C(C)CC3C2=O)c(OC)c1 (stereo not drawn)	10.9
CCOC(=O)C1CCCN(C(=O)c2ccc(NC(=O)CC3SC(N4CCCC4)=NC3=O)cc2)C1 (stereo not drawn)	12.9
O=C(CCN1C(=O)/C(=C/c2ccc(F)cc2)SC1=S)Nc1cccnc1	3.56
COc1ccc(-n2c(Cc3cccn3C)nnc2SCC(=O)Nc2ccc(C(C)=O)cc2)cc1	-4.7
Cc1cc2c(cc1C)C(c1ccccc1F)CC(=O)N2 (stereo not drawn)	11.4
O=C(/C=C/c1cccs1)Nc1ccc([N+](=O)[O-])cc1	1.54
COc1ccc(Br)cc1C(=O)NC(=S)Nc1ccc(Cl)c(C(=O)O)c1	34
COCCNC(=O)c1ccccc1NC(=O)c1ccccc1SC	1.11
CCOC(=O)N1CCN(C(=O)CCSCCc2ccncc2)CC1	-14.3
Cc1ccc(C)c2nc(N3CCCC3)c(C#N)cc12	7.81
CC1(C)CC(=O)C2=C(C1)N(Cc1ccc(F)cc1)C(=O)C2(NC(=O)c1cccnc1)C(F)(F)F (stereo not drawn)	-5.55
Cc1ccc(S(=O)(=O)CC(=O)Nc2ccccn2)cc1	9.19
Cc1cccc(N(Cc2cc(=O)[nH]c3ccccc23)C(=O)C(C)C)c1	-6.76
Nc1ccc(C(=O)O)cc1S(=O)(=O)O	4.1
Oc1c(Br)cc(Br)cc1C=Nc1ccc2c(c1)OCCO2	14.9
Cc1nn(C)cc1CNC(=O)c1cnn2c(C(F)F)cc(C3CC3)nc12	-21.3
CC(C)NOC(=O)c1ccc(Cl)cc1	-5.23
Cn1cc(S(=O)(=O)CC(=O)N2CCCc3ccccc32)c2ccccc21	-15.2
COCc1cc(N2CCCC2)nc(-c2ccccc2)n1	1.91
CCOc1ccccc1C1NC(=O)NC(C)=C1C(=O)OCc1ccco1 (stereo not drawn)	-8.95
O=C(Nc1ccccc1)O/N=C/c1ccccc1Cl	11.2

SMILES	hERG current change (%, negative = inhibition) at 10uM [%]
O=C1/C(=C/c2ccccc2)NC(=S)N1C(c1ccccc1)c1ccccc1	9.94
Cn1cnnc1Sc1cc(N2CCNCC2)ccc1[N+](=O)[O-]	7.66
Cc1nc(SCc2cccnc2)[nH]c(=O)c1C	20.9
COc1ccc(Oc2ccc(NC(=O)c3ccccc3C)cc2)cc1	1.33
COC(=O)C1C(=O)N2CCCSC2=C(C#N)C1c1cccs1 (stereo not drawn)	1.49
CC1(C)CC(=O)C2=C(C1)N(CCN1CCOCC1)C1=C(C(=O)CC(C)(C)C1)C2c1cccc(Cl)c1	-54
O=C(Nc1ccnn1C1CCN(C2CCCC2)CC1)c1ccccc1	1.61
COC(=O)c1ccc(-c2nc(CN3CCN(Cc4cccc(C)c4)CC3)c(C)o2)cc1	-25.3
CCC(C)(C)C1CCc2[nH]nc(C(=O)NC3CCCC3)c2C1 (stereo not drawn)	2.45
CC(=O)c1c(C)[nH]c(C(=O)Nc2cc(F)ccc2C)c1C	18.1
O=C(Nc1ccccc1OC(F)F)c1ccc(S(=O)(=O)N2CCCC2)cc1	-3.72
Cc1nc2ccccc2c(=O)n1NS(C)(=O)=O	14.8
Cc1ccc(C(=O)C(NC(=O)c2ccco2)N2CCOCC2)cc1 (stereo not drawn)	1.86
O=S(=O)(NC1=NCCC1)c1cccc(NS(=O)(=O)c2ccc(OC(F)(F)F)cc2)c1	1.71
CCc1ccc(NC(=O)CSc2nc(=O)n(CCN(C)C)c3c2CCCC3)cc1	-24.2
O=C(NCC(c1cccs1)N1CCOCC1)c1ccccc1NS(=O)(=O)c1ccc(Br)cc1 (stereo not drawn)	-38.4
Nc1nnc(-c2ccccc2)c(-c2ccccc2)n1	-10.7
O=C(N/N=C/c1ccc2c(c1)OCO2)C(=O)Nc1ccc2ccccc2c1	4.93
COc1ccc(CNC(=O)Nc2ccc(C)c(C)c2)cc1	12.1
COc1cc(Cl)c(C)cc1NC(=O)c1cc(S(=O)(=O)N(C)C)ccc1N1CCCC1	-51.8
CCOc1cc(CNCc2ccncc2)cc(Cl)c1OC.Cl	24.6
Clc1ccc(-c2cnn3c(-c4ccncc4)ccnc23)cc1	5.43

SMILES	hERG current change (%, negative = inhibition) at 10uM [%]
CCC(C)c1c(O)nc(SCC(=O)Nc2ccccc2)[nH]c1=O (stereo not drawn)	13.7
CCN1Cc2c(/C=C/c3ccccc3)nc3ccc(OC)cc3c2N(c2cccc(Cl)c2)C1	-12.5
CCc1nc2c(c(=O)[nH]1)C1(CCCC1)Cc1ccccc1-2	10
O=C(O)CCC(=O)OCc1c(-c2ccccc2)ncc2ccccc12	9.09
O=C(CN1CCC(O)(c2cccc(F)c2)CC1)NCCc1c[nH]c2ccccc12	-27.6
CCOc1ccc(CCNC(=O)COC(=O)c2cccnc2SC)cc1OCC	-11.7
CN(CC(=O)Nc1ccc(N2CCOCC2)cc1)C(=O)CCCOc1ccc(Cl)cc1Cl	-28.2
CC(=O)c1sc(NC(=O)c2cccnc2Cl)nc1C	-17.9
COc1ccc(C(=O)COC(=O)CCCn2c(=O)oc3ccccc32)cc1	-43.6
O=C(CCN1CCCCO1)N1CCCC(Nc2ccc(F)c(F)c2)C1 (stereo not drawn)	-0.135
CCOC(=O)C1CCCCN1C(=O)c1oc2c(Cl)cc(C)cc2c1C (stereo not drawn)	19.8
O=C(Nc1nccs1)c1ccc(COc2ccc(F)cc2)o1	8.63
Cc1cc(Br)ccc1NC(=O)CNC(=O)Cc1ccc(S(=O)(=O)N2CCOCC2)s1	-33.8
CCC(=NCCCN(C)C)c1c(O)n(-c2ccc(OC)cc2)c(=O)[nH]c1=O	1.59
N#Cc1cnc(SCC(=O)c2ccccc2)nc1N	-8
CC(C)NC[C@H](O)COc1ccc(CC(N)=O)cc1	12.8
COc1ccc(-c2nc(N)ncc2-c2ccc(OC)c(OC)c2)c(O)c1	-20
O=C(CS(=O)(=O)c1cn(CC(=O)N2CCOCC2)c2ccccc12)NCc1ccccc1	7.51
COc1ccc(-n2c(=S)[nH]c3cc(C(=O)NCCCN4CCOCC4)ccc3c2=O)c(OC)c1.Cl	11.7
COC(=O)C1CCN(C2=C(NS(=O)(=O)c3ccc(Cl)cc3)C(=O)c3ccccc3C2=O)CC1	-25.1
CCc1cccc(CC)c1NC(=O)COC(=O)c1ccc(F)c(S(=O)(=O)N(CC)CC)c1	-17
Cn1c(=O)c2ccccc2n(Cc2cccc(F)c2)c1=O	-1.34

SMILES	hERG current change (%, negative = inhibition) at 10uM [%]
CCn1ncc(CN2CCCC(C(=O)c3cccc(OC(C)C)c3)C2)c1C (stereo not drawn)	-19.8
COc1ccc([C@H]2/C=C\CN(S(C)(=O)=O)[C@@H](C)C(=O)N2Cc2ccc(F)cc2)cc1	-13
Cc1ccccc1NCCC(=O)Nc1ccc(F)cc1	-21.4
CCCNC(=O)C1CCN(S(=O)(=O)c2ccc3[nH]c(=O)ccc3c2)CC1	8.03
O=S(=O)(c1ccc2c(c1)OCCCO2)N1CCNCC1	5.64
Cc1cccc(N2C(=O)CC(N3CCC(c4nc5ccccc5[nH]4)CC3)C2=O)c1 (stereo not drawn)	-33.5
CN(C)c1ccc(/C=C2\SC(=O)N(CC(O)Cn3c4ccccc4c4ccccc43)C2=O)cc1 (stereo not drawn)	1.54
COc1ccc(Cc2nnc(NC(=O)c3c(-c4ccccc4)noc3C)s2)cc1	8.07
O=c1[nH]c(=O)n(Cc2ccco2)c2c1C(C(F)(F)F)(C(F)(F)F)N=C(C1CCCCC1)N2	7.33
O=c1cc(O)c2c(=O)n(-c3ccccc3)c3c(c2o1)CCCCCC3	-2.07
CC(C)(C)NC(=O)CN(C(=O)C1CSC(=O)C1)c1ccccc1F (stereo not drawn)	-0.923
CC(=O)N1CCN=C1SCc1c(F)cccc1Cl	-8.69
COc1ccc(S(=O)(=O)N2CCN(c3nn(C)c(=O)n(C)c3=O)CC2)cc1	-3.17
CCN1C(=O)[C@H]2[C@@H](c3ccc(SC4CCCCC4)cc3)N[C@@](CC(C)C)(C(=O)OC)[C@H]2C1=O.O=C(O)C(F)(F)F	-7.5
CCOC(=O)C(C)n1cnc2scc(-c3ccc(C)cc3)c2c1=O (stereo not drawn)	-12.8
Cc1cc(Oc2nc3ccccn3c(=O)c2/C=C(\C#N)C(=O)NC2CCS(=O)(=O)C2)ccc1Cl (stereo not drawn)	-3.75
CC(=O)Nc1c(OC(C)=O)ccc2c(C)cc(=O)oc12	0.768
CCOC(=O)C1=C(N)OC2=C(C(=O)CCC2)C1c1cccnc1 (stereo not drawn)	6.28
CC1(C)CC(=O)C2=C(C1)N(C1CCCCC1)C(=O)C2(O)C(F)(F)F (stereo not drawn)	9.52
Cc1ccc(CNC(=O)C2CCC(=O)N2Cc2ccc(F)cc2)cc1 (stereo not drawn)	-5.69
O=C(Cc1c(F)cccc1Cl)N1CCN(C(=O)c2ccco2)CC1	-4.81
